Sequences and labels used below:
B1: CPEB3 Ribozyme (parent)
chain: UAACAGGGGGCCACAGCAGAAGCGUUCACGUCGCAGCCCCUGUCAGAUUCUGGUGAAUCUGCGAAUUCUGCUGUAUAUCUC

The source gives no read counts; variants with many changes may rest on few reads.

The series covers variants of B1. The experiment in a line: self-cleavage, relative activity (ratio to wild type); higher = more cleavage; in vitro, sequencing. The essentials: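 Libraries of CPEB3 self-cleaving ribozyme mutants came from rounds of error-prone PCR and carried barcodes, which DNA sequencing matched to variants. In vitro transcription used T7 RNA polymerase at 37°C for 5 hours, with a further 15 min in DNase I before EDTA stopped the reaction; the ribozymes cleaved during both steps. The RNA was reverse transcribed with template switching and sequenced on Illumina. Relative activity is the cleaved/total read fraction of a variant divided by that of the unmutated ribozyme, averaged over three batches with at least 5 reads.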
For G8U C23A U49C A65G, the self-cleavage came out at 0.12.

Turning to G9A C11A C23G C32A U51A U69C U72A, the self-cleavage amounted to 0.01.

In the case of G9A A18G A20G G33A U43A A47U U48C, the self-cleavage stood at 0.06.

Turning to G9A A21G C39G A56G U72C, the self-cleavage is 0.05.

Take G8U A18U A35U G52A U78C: the self-cleavage was found to be 0.05.

As for G8U U51C A57G U69G, the self-cleavage was 0.3.

For G9A A20U U31C G53A U60A G63U A75G, the self-cleavage was found to be 0.1.

For the variant G9A A47G A57G, the self-cleavage worked out at 0.13.

For the variant G9A A15G A20G U54C, the self-cleavage amounted to 0.24.

Regarding G8U U66C U69A, the self-cleavage was 0.14.

As for G8U C23G U25C U26C U51A, the self-cleavage was 0.06.

In the case of G8U U31C U41C, the self-cleavage is 0.15.

For the variant G9A A18G U31A U78A, the self-cleavage came to 0.06.

Consider G8U U31C U78C, for which the self-cleavage is 0.06.

With G9A A28U A65G U72A A77G, the self-cleavage is 0.04.

Take G8U C23U U31C U51C: the self-cleavage was 0.26.

For the variant G8U A18U U49A U72G C81U, the self-cleavage stood at 0.07.

As to G8U A20G C34A U41A A77G U80C, the self-cleavage was 0.03.

On to G8U C27G U54A C62U, for which the self-cleavage was determined as 0.06.

As for G9A A47G U80C, the self-cleavage came to 0.27.

With G8U A35G U74C U80C, the self-cleavage worked out at 0.19.

Regarding G8U A18U A20U U25C A47U, the self-cleavage is 0.05.

As for G9A A15G A28G U41C, the self-cleavage was 0.09.

Regarding G9A A35U U41A A56G, the self-cleavage was 0.05.

For the variant G9A A21G U25C U41C, the self-cleavage was 0.41.

G8U A21U U66C: the self-cleavage worked out at 0.12.

Take G8U A21U U66A: the self-cleavage worked out at 0.12.

As for G9A A47G A57G U72G, the self-cleavage amounted to 0.41.

As for G9A A20G A28G C38U U49C, the self-cleavage was determined as 0.04.

Turning to G8U C12U U41C U60A, the self-cleavage was 0.2.

On to G8U U31A U67A, for which the self-cleavage stood at 0.11.

For G8U A18G U25G A28G A77G, the self-cleavage is 0.17.

Regarding G8U A35U U49C U60A C68A, the self-cleavage turned out to be 0.14.

Turning to G9A A47C U48C A64G, the self-cleavage turned out to be 0.09.

Take G8U C23A A45G A64G U67C: the self-cleavage is 0.08.

G9A A56U U66C: the self-cleavage came to 0.06.

Consider G8U G33A C37A C39G U49A C62G U76A, for which the self-cleavage was 0.01.

Turning to G9A A13C C38A A57U, the self-cleavage was determined as 0.1.

Consider G9A A13U A35U U41C U43C, for which the self-cleavage amounted to 0.06.

Regarding G8U C39A U54C U67C U80C, the self-cleavage amounted to 0.06.

As for G9A A15G C29U, the self-cleavage is 0.16.

Turning to G8U A28G A64G U78C, the self-cleavage worked out at 0.1.

In the case of G8U G10C A56G U67C U69C U74C, the self-cleavage is 0.06.

G9A A64G U80C: the self-cleavage was determined as 0.23.

Regarding G9A A13G A18G C40U U41A, the self-cleavage is 0.06.

For G9A A65G U66C U72C, the self-cleavage came out at 0.04.

Regarding G9A A45G A56G, the self-cleavage was 0.37.

As for G8U G16U A21G C38A, the self-cleavage turned out to be 0.35.

As for G8U A18G A45U A64G, the self-cleavage stood at 0.15.

As to G9A A21G U31C A35U A56G U80C, the self-cleavage stood at 0.18.

For G9A A20U C39U, the self-cleavage came out at 0.08.

As to G9A A21G U25C A56U U60A, the self-cleavage was found to be 0.03.

As for G9A A20U U49C C71A A75G, the self-cleavage worked out at 0.04.

With G8U C14U U31A A35G U67C U72C, the self-cleavage came out at 0.1.

As to G9A A28G A56U, the self-cleavage came out at 0.21.

For G8U U49A C59U A64U U72C, the self-cleavage stood at 0.04.

For G8U G30A U49C U51A C62A U66A U74A, the self-cleavage was 0.02.

In the case of G8U A21G G24U U25C U26C U58C, the self-cleavage was determined as 0.03.

With G9A A47G A57G U60G, the self-cleavage was 0.06.

In the case of G9A A35G U41C U48C C81A, the self-cleavage stood at 0.75.

As for G8U U41G U48C U58C, the self-cleavage was 0.04.

G8U A18G U25C U72C: the self-cleavage came out at 0.06.

As to G9A A15G G42A U54C A65U, the self-cleavage came to 0.12.

As for G8U U26A G61C, the self-cleavage was found to be 0.11.

G8U A35C U67C: the self-cleavage is 0.05.

For the variant G8U A21U A57G, the self-cleavage was determined as 0.12.

As to G8U C32U A65G, the self-cleavage was determined as 0.14.

Take G9A A28G C32U G36C A56G A64G U74C: the self-cleavage came out at 0.03.

For the variant G9A A15G U26A U54A, the self-cleavage was determined as 0.09.

As to G9A A21G U41C U49A U54G A57G U67C, the self-cleavage was determined as 0.03.

Turning to G9A A28C U49A A57G, the self-cleavage was determined as 0.05.

As for G9A A15G A45G U58A U72C U80A, the self-cleavage stood at 0.17.

Regarding G9A A28G A47U G52A A64G C68A U72A, the self-cleavage worked out at 0.02.

As for G8U G46U U54C U60C, the self-cleavage amounted to 0.06.

With G9A A56U U69C C71A, the self-cleavage amounted to 0.07.

Regarding G9A A18G U31C U49C G55U U76A, the self-cleavage was 0.05.

As to G8U G9A C38A, the self-cleavage is 0.22.

G9A A20U C29U A45G: the self-cleavage is 0.06.

Take G8U U26A A56G: the self-cleavage worked out at 0.07.

As for G9A A18G A28U, the self-cleavage was 0.24.

G8U C40U A64G: the self-cleavage was 0.06.

Take G8U G19C U69C: the self-cleavage was 0.12.

For the variant G8U A18U U26C C29U U48C U69A, the self-cleavage was determined as 0.08.

For the variant G9A A18G C40U U41A A57U U74C, the self-cleavage came to 0.04.
